The text below walks through data of ChEMBL document CHEMBL4888484, “Replenishing the malaria drug discovery pipeline: Screening and hit evaluation of the MMV Hit Generation Library 1 (HGL1) against asexual blood stage Plasmodium falciparum ,using a nano luciferase reporter read-out” (2022).

SMILES strings stand for the structures. About 540 (0.36%) of roughly 150,000 compounds showed an effect of 50% or more. Some of the results follow.

The test deals with Plasmodium falciparum. In words: Primary screen in NF54 nanoGlo assay, in single point, at 2uM, 72h; a lower Z score goes with more inhibition. In kind it is functional, Erythrocyte. Conditions: timepoint 72 hour.
As for `Cc1cc(NC(=O)CCn2cnc(C)c(C)c2=O)no1`, the % Inhibition – broadly, the change of the read-out against control, counted positive when it falls – is recorded as -7% and the Z score is given as 1.18.
The like results for `CCOC(=O)N1CCC(NC(=O)c2ccc(N3C(=O)[C@@H](C)CS3(=O)=O)cc2Cl)CC1` were, in that order, -7% and 0.86.
For `COc1ccc(-c2cccc(-n3cncc3C(=O)N3Cc4ccccc4C3)c2)cc1OC`, the “% Inhibition” value was -1% and the Z score came to 0.08.
The like results for `CCCCC[C@H](C)NC(=O)CCC(=O)Nc1cccnc1` were, in that order, 31% and -4.03.
The like results for `CN(CCNC(=O)c1ccc(-c2cnn(C)c2)cc1)S(C)(=O)=O` were, in that order, -3% and 0.58.
As for `CC(C)OCCCNc1cc(N2CCC[C@H]2C(N)=O)ncn1`, the “% Inhibition” value is listed as -4% and the Z score turned out to be 0.81.
The like results for `Cc1ccc(S(=O)(=O)NCC2(CNS(=O)(=O)c3ccc(C)cc3)CN(S(=O)(=O)c3ccc(C)cc3)C2)cc1` were, in that order, 37% and -4.72.
Take `CCCN(Cc1nc(COC)c(Cc2ccc(C)cc2)c(=O)[nH]1)C(=O)NC(C)(C)C`: the “% Inhibition” value is listed as -20% and the Z score is reported as 1.96.
The like results for `CN1CCOC2CN(C(=O)c3ccc(C#N)[nH]3)CC21` (centres undefined) were, in that order, -13% and 1.53.
The like results for `CC(C)(CC(=O)O)CC(=O)Nc1ccc(Cc2nnc3ccccn23)cc1` were, in that order, 34% and -1.08.
For the molecule `C=CC[C@H](C)NC(=O)c1c(Br)cccc1Br`, the “% Inhibition” value is 0% and the Z score is reported as -0.08.
The like results for `Cc1ccc(CN2CCN(CC3CCCCC3)[C@@H](CCO)C2)o1` were, in that order, -17% and 1.48.
The like results for `COc1ccc(N2CCN3c4cc(Cl)ccc4CC4(C(=O)N(c5ccc(C)cc5)N=C4C)C3C2)cc1` (centres undefined) were, in that order, -5% and 0.71.
Turning to `COc1cccc(CN2CCC[C@@]3(CCN(C(=O)c4ccsc4)C3)C2)c1`, the “% Inhibition” value was -5% and the Z score worked out at 0.92.
The like results for `O=C(NC1CCOCC1)c1cccc(Oc2nccs2)c1` were, in that order, -1% and 0.2.
The like results for `Cc1noc(C)c1CCC(=O)N1CCN(c2ncnc3c2CCC3)CC1` were, in that order, -13% and 2.15.
The like results for `CCc1noc(CCNC(=O)Nc2nc(CC)n(C)n2)n1` were, in that order, -15% and 1.99.
`Cc1n[nH]nc1C(=O)Nc1nc(Cc2ccc(F)cc2F)ns1`: the “% Inhibition” value was -17% and the Z score was 1.48.
For the molecule `CCNC(=O)N(Cc1nccn1Cc1ccc(Cl)c(Cl)c1)CC1CC1`, the “% Inhibition” value is given as -7% and the Z score was 0.84.
Turning to `Cc1ocnc1C(=O)Nc1cccc(N2C(=O)CC[C@@H]2C)c1`, the “% Inhibition” value was 4% and the Z score is -0.7.
Turning to `Cc1ccc(-c2noc(CCc3nc(-c4ccc(C)cc4)no3)n2)cc1`, the “% Inhibition” value is recorded as 0% and the Z score was -0.05.
The like results for `O=C(NCC(=O)N1CCCC1)c1nc2cccnc2s1` were, in that order, -9% and 1.22.
The like results for `Cc1cccc2c1OCC[C@H]2NC(=O)Cn1cnc2c1CCNC21CCOCC1` were, in that order, -5% and 0.76.
As for `O=C(C[C@@H]1Nc2ccccc2NC1=O)Nc1ccc(OC(F)(F)F)cc1`, the “% Inhibition” value is listed as -4% and the Z score worked out at 0.57.
With `O=C(CCC(=O)c1ccccc1)Nc1ccc(-c2cc[nH]n2)cc1`, the “% Inhibition” value was -5% and the Z score is 0.74.
The like results for `Nc1sc(=O)n(Nc2ccc(S(N)(=O)=O)cc2)c1N1CCOCC1` were, in that order, -36% and 4.17.
In the case of `COc1ccc(C(=O)N2CCN(c3nc4cc(C)ccc4o3)CC2)nn1`, the “% Inhibition” value was -9% and the Z score is 1.7.
Take `O=C(c1noc2c1CCCC2)N1C[C@@H]2CCS(=O)(=O)[C@@H]2C1`: the “% Inhibition” value is reported as -10% and the Z score was determined as 1.34.
The like results for `CC(C)CCN1CCN([C@H]2CCN(CCc3ccccc3)C2=O)CC1` were, in that order, -6% and 0.82.
Turning to `Cn1nc(C2CC2)nc1-c1csc2c1CCCC2`, the “% Inhibition” value is recorded as -3% and the Z score stood at 0.45.
The like results for `Cc1ccc2c(c1)NC(=O)[C@@H](CC(=O)N1CCN(c3cccc(C)c3C)CC1)CO2` were, in that order, -2% and 0.31.
The like results for `CC(C)CN(C1CCN(C)CC1)C1CN(C(=O)NCCc2ccccc2)C1` were, in that order, -11% and 1.45.
For the molecule `O=C(CCn1ccccc1=O)N1CCCCCC1`, the “% Inhibition” value is 6% and the Z score is on record as -0.93.
With `CC(C)(C)OC(=O)NC[C@H]1CCN(Cc2ccncc2Cl)C1`, the “% Inhibition” value is reported as -12% and the Z score amounted to 2.31.
The like results for `COCc1nc(C(=O)N[C@@H](C(C)C)C2(CO)CCCC2)cs1` were, in that order, -2% and 0.22.
In the case of `COC1(CNc2nc3ccccc3[nH]2)CCOCC1`, the “% Inhibition” value is -15% and the Z score turned out to be 1.7.
As to `CCOC(=O)N1CCN(C(=O)c2cccn3c(=O)c4cc(Cl)ccc4nc23)CC1`, the “% Inhibition” value is -14% and the Z score came to 1.66.
The like results for `CC1CCN(C(=O)[C@H]2CCC[C@H]2NC(=O)c2ccncc2)CC1` were, in that order, -15% and 1.95.
The like results for `O=C(NCCc1nc2ccccc2[nH]1)N1CCO[C@H](c2ccc(F)cc2F)C1` were, in that order, -8% and 1.47.
Turning to `C[C@H](Oc1ccccn1)c1nc(C2(c3ccncc3)CCC2)no1`, the “% Inhibition” value turned out to be 0% and the Z score was -0.07.
With `Cc1ccc(CNC(=O)c2[nH]ncc2C(F)(F)F)n1C`, the “% Inhibition” value is -1% and the Z score is 0.24.
The like results for `O=C(Nc1ccc2c(c1)OCO2)c1ccc(S(=O)(=O)N2CCCC2)cc1` were, in that order, -1% and 0.13.
